The source of these data is the RNAGym collection of RNA variant scans (doi:10.1093/nar/gkz1192).

B1: CPEB3 Ribozyme (parent)
chain: UAACAGGGGGCCACAGCAGAAGCGUUCACGUCGCAGCCCCUGUCAGAUUCUGGUGAAUCUGCGAAUUCUGCUGUAUAUCUC

Read counts are not given, so values of variants with three or more changes are uncertain.

This data set covers variants of B1. Briefly: self-cleavage, relative activity (ratio to wild type); higher = more cleavage; in vitro, sequencing. The gist of the method: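 Libraries of CPEB3 self-cleaving ribozyme mutants came from rounds of error-prone PCR and carried barcodes, which DNA sequencing matched to variants. In vitro transcription used T7 RNA polymerase at 37°C for 5 hours, with a further 15 min in DNase I before EDTA stopped the reaction; the ribozymes cleaved during both steps. The RNA was reverse transcribed with template switching and sequenced on Illumina. Relative activity is the cleaved/total read fraction of a variant divided by that of the unmutated ribozyme, averaged over three batches with at least 5 reads.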
Turning to UAACAGGGGGUCACAGCAGAAGCGUACACGUCGCAGCCCCUGUCAGAUCCUGGUGAGUCUGCGAAUUCUGCUGUAUAUCUC [C11U U26A U49C A57G], the self-cleavage was found to be 0.1.
With UAACAGGGGGUCACAGCUGAAGCGUUCACGUCGCAGCCCCUGUCAGAUUCUGGUGAAUCCGCGAAUUCUGCUGUAUAUCUC [C11U A18U U60C] the figure was 0.12.
With UAACAGGGGGUCACAGCAGGAGCGUCCACGUCGCAGCCCCUGUCAGGUUCUGGUGGAUCUGCGGAUUCUGCUGUAGAUCUC [C11U A20G U26C A47G A56G A64G U76G] the figure was 0.
For the variant UAACAGGGGGUCACAGCAGAAGCGUUCACGUCGCGGGCCCUGUCAGAUUCAGGUUAAUCUGCGAAUUCUGCUGUAUAUCUC [C11U A35G C37G U51A G55U], the self-cleavage was 0.06.
With UAACAGGGGGGCACAGCAGAAGCGUUCACGUCGCAGCCCCUGUCAGAAUCAGGUGAAUCUGCGAAAUCUGCUGUAUAUCUC [C11G U48A U51A U66A] the figure was 0.22; with UAACAGGGGGUCACAGCAGAAGCGUUCACGUCGCAGCCCUUGUCAGAUUCUGGAGAAUCCGCGAAUUCUGCUGUAUAUCUC [C11U C40U U54A U60C], 0.17; with UAACAGGGGGUCACAGCAGAAGCGUACACGUCGCAGCCCCUGGCAGAUUCUGGUGAAUCUGCGAAUUCUGCUGUAUACCUC [C11U U26A U43G U78C], 0.17.
For the variant UAACAGGGGGUCACAGCAGAAGCGUUCACGUCGCAGCCCCUGUCAGGUUCUGGUGAAUCUGCGGAUUCUGCCGUAUAUCUC [C11U A47G A64G U72C], the self-cleavage came to 0.16.
Under UAACAGGGGGUCACAGCAGAAGCGUUCACAUCGCAGCCCCUGUCAGAUUCUGGUGAAUCUGCGAAUUCUGCCGUAUAUCAC [C11U G30A U72C U80A] stands 0.05; under UAACAGGGGGUCAAAGCAGAAGCGUUCACGUCGCAGCCCCUGUCAGAUCCUGGUGAGUCUGCGAAUUCUGCAGUAUAUCUC [C11U C14A U49C A57G U72A], 0.13.
Under UAACAGGGGGUCACAGCAGAGGCGUUCACGUCGCAGCCCCUGUCAGAUCCUGGUGAAUCUGCGAAUUCUGCUGUAUAUCUC [C11U A21G U49C] stands 0.22; under UAACAGGGGGUCACAGCAGAAGCGUUCACGUCGCAGCCCCUGUCAGAUCCUGGUGAAUCUGCGAAUUCGGCUGUAUAUCUC [C11U U49C U69G], 0.07; under UAACAGGGGGUCACAGCAGAAGCGUUCGCGUCGCAGCCCCGGUCAGAUUCUGGUGAAUCUGCGGAUUCUGCUGUAUACCUC [C11U A28G U41G A64G U78C], 0.06.
With UAACAGGGGGUCACAGCAGAAGCGUUAACGUCGCAGCCCCUGUCAGAUUCUGGUGAAUCUGCGAAUUCUGCUGUAUAUCCC [C11U C27A U80C] the figure was 0.1.
Turning to UAACAGGGGGUCACAGCAGAAGCGUUCACGUCGCAGCCCCUGUCGGGCUCUGGUGAAUCUGCGAAUUCUGCUGUAUAUCUC [C11U A45G A47G U48C], the self-cleavage turned out to be 0.1.
Under UAACAGGGGGUCACAGCAGAAGCGCCCACGUCGCAGCCCCUGUCAGAUUCGGGUGAAUCUGCGAAUUCUGCUGUAUACCUC [C11U U25C U26C U51G U78C] stands 0.04; under UAACAGGGGGUCACAGCAGAAGCGUUCACGUCGCAGCCCCUGUCACAUUCUGGUGAAUCUGCGAAUCCUGCUGUAUAUCUC [C11U G46C U67C], 0.06; under UAACAGGGGGUCACAGCAGAAGCGUUCACGUCGCAGCCCCUGCCAGAUUCUGGUGAAUCUGCGAAUUCUGCUGUAUAUCCC [C11U U43C U80C], 0.07.
On to UAACAGGGGGUCACAGCAGAAGCGUUCACGUCGCGGCCCCUGUCAGAUCCUGGUGAAUCUGCGAACUCUGCUGUAUAUCUC [C11U A35G U49C U66C], for which the self-cleavage was found to be 0.09.
Under UAACAGGGGGUCUCAGCAGAAGCGUUCACGUCGCAGCCCCUGUAAGAUUCUGGUGAAUCUGCGAAUUCAGCUGUAUAUCCC [C11U A13U C44A U69A U80C] stands 0.07.
Under UAACAGGGGGUCACAGCAGGAGCGCUCACGUCGCAGCCCCUGUCAGAUUCUGGUGAAUCAGCGAAUUCAGCUGUAUAUCUC [C11U A20G U25C U60A U69A] stands 0.15.
With UAACAGGGGGUCACAGCAGAAGCGUUCACGUCGCAGCCCCUGUCAGAUUCUGGUGAAUCUGAGAAUUCUGCCGUAUAUCUC [C11U C62A U72C] the figure was 0.19; with UAACAGGGGGUCACAGCAGAAGCGUUGACGUCGCGGGCCCCGUCUGAUUCUGGUGAAUCUGCGGAUUCUGCUGUAUAUCUC [C11U C27G A35G C37G U41C A45U A64G], 0.04; with UAACAGGGGGUCACAGCAGAAGCGCCCACGUCGCAGCCCCUGUCAGAUUCUGGUGAAUCUGCGAAUUCUGGUGUAUAUCUC [C11U U25C U26C C71G], 0.04.
Take UAACAGGGGGUCACAGCGGAGGCGUUCACGUCGCAGCCCCUGUCAGAUUCUGGUGAAUAUGCCAAUUCUGCAGUAUAUCUC [C11U A18G A21G C59A G63C U72A]: the self-cleavage is 0.05.
Regarding UAACAGGGGGUCACAGCAGAAGCGUUCACGACGCAGCCCCUGUCAGAUUCUGUUGAAUCUGCGAAUCCUGCUGUAUAUCCC [C11U U31A G53U U67C U80C], the self-cleavage came to 0.07.
As to UAACAGGGGGUCACAGCAGAAGCGUUCUCGUCGCAGCCCCUGUCAGAUUCUGGUGAAUGUGCGAAUUCUGCUGUAUAUCCC [C11U A28U C59G U80C], the self-cleavage was determined as 0.08.
Under UAACAGGGGGUCACAGCAGGAGCGUUCACGUCGCGGCCCCCGUCAUAUUCAGGUGAAUCAGCGAAUUCUGCUGUAUAUCUC [C11U A20G A35G U41C G46U U51A U60A] stands 0.37.
Under UAACAGGGGGUCACAGCAGAAGCGCUCACGCCGCAGCCCCAGUCUGAUUCUGGUGAAUCUGCGAAUUCUGCCGUAUAUCUC [C11U U25C U31C U41A A45U U72C] stands 0.06; under UAACAGGGGGUCACAGCAGAAGCGUUCACGUCGCAGCCCCCGCCAGAUUCUGGUGAAACUGCGAAUUCUGCUGUAUAUCUC [C11U U41C U43C U58A], 0.11.
Under UAACAGGGGGUCACUGCAGAGGCGUUCACGUCGCAGCCCCUGUCGGAUUCUGGUGAAUCUGCGAAUUCCGCUGUAUAUCUC [C11U A15U A21G A45G U69C] stands 0.36.
In the case of UAACAGGGGGUCACAGCAGAAGCGUUCACGUCGCAGCCCCUGUCAGAUUCUGGUGAAUCUGUGAAUUCUGCUGUACAUCUC [C11U C62U U76C], the self-cleavage worked out at 0.52.
With UAACAGGGGGUCACAGCAGAAGCGUUCACGUCGCAGCCCCUGUCCGAUUCUGGUGAACCUGCGAAUUCUGCUGUAUAUCUC [C11U A45C U58C] the figure was 0.06.
Under UAACAGGGGGUCACAGCAGAAGCGCUCACGUCGCAGCCCCUGUCAGAUUCUGGUGAGUCUGCGAAUACUGCUGUAUAUCUC [C11U U25C A57G U67A] stands 0.04.
